# Measured values: the supplement of paper PMC8728848
# Some of the results follow.
# B1: FimA-N3 (Actinomyces oris) (protein)
# chain: MHHHHHHSSGVDLGTENLYFQSNAGLQGAQFQLYKAKNAYANTCSNEKEGAPIAINGQTTLTTDAQGAIDIKGLFISDSIDGADRDNQVNAMERCYVLVETKAPAGYVLPAGNGAATPVKVKAGEETTDN
# Columns and labels:
# Experiment in all cases: glycan array binding signal (z-score within array); higher = stronger binding
# Conditions in all cases: glycan notation: IUPAC condensed, linker removed
# [1] = target: Neu5Ac(a2-3)GalNAc
# Outline: (§1)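 Glycan array data were curated from 3228 arrays in the Consortium for Functional Glycomics database and kept only where the protein sequence was available. Glycan names were converted to IUPAC-condensed notation, and columns mapping to the same glycan were averaged. The binding signal is a within-array Z-score, averaged across arrays of the same protein sequence at different concentrations or buffers and across linkers. Negative Z-scores can be read as non-binding.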
# [2] = target: Neu5Ac(a2-3)GalNAc(b1-4)GlcNAc
# Outline: as §1
# [3] = target: Neu5Ac(a2-3)[GalNAc(b1-4)]Gal(b1-4)Glc
# Outline: as §1
# [4] = target: Neu5Ac(a2-3)[GalNAc(b1-4)]Gal(b1-4)GlcNAc
# Outline: as §1
# [5] = target: Neu5Ac(a2-3)[GalNAc(b1-4)]Gal(b1-4)GlcNAc(b1-3)GalNAc
# Outline: as §1
# [6] = target: Neu5Ac(a2-3)[Neu5Ac(a2-6)]GalNAc
# Outline: as §1
# [7] = target: Neu5Ac(a2-6)Gal
# Outline: as §1
# [8] = target: Neu5Ac(a2-6)Gal(b1-3)GlcNAc(b1-3)[Gal(b1-4)GlcNAc(b1-6)]Gal(b1-4)Glc
# Outline: as §1
# [9] = target: Neu5Ac(a2-6)Gal(b1-4)Glc
# Outline: as §1
# [10] = target: Neu5Ac(a2-6)Gal(b1-4)GlcNAc
# Outline: as §1
# [11] = target: Neu5Ac(a2-6)Gal(b1-4)GlcNAc(b1-2)Man
# Outline: as §1
# [12] = target: Neu5Ac(a2-6)Gal(b1-4)GlcNAc(b1-2)Man(a1-3)Man(b1-4)GlcNAc(b1-4)GlcNAc
# Outline: as §1
# [13] = target: Neu5Ac(a2-6)Gal(b1-4)GlcNAc(b1-2)Man(a1-3)[Gal(b1-4)GlcNAc(b1-2)Man(a1-6)]Man(b1-4)GlcNAc(b1-4)GlcNAc
# Outline: as §1
# [14] = target: Neu5Ac(a2-6)Gal(b1-4)GlcNAc(b1-2)Man(a1-3)[GlcNAc(b1-2)Man(a1-6)]Man(b1-4)GlcNAc(b1-4)GlcNAc
# Outline: as §1
# [15] = target: Neu5Ac(a2-6)Gal(b1-4)GlcNAc(b1-2)Man(a1-3)[GlcNAc(b1-4)][Neu5Ac(a2-6)Gal(b1-4)GlcNAc(b1-2)Man(a1-6)]Man(b1-4)GlcNAc(b1-4)GlcNAc
# Outline: as §1
# [16] = target: Neu5Ac(a2-6)Gal(b1-4)GlcNAc(b1-2)Man(a1-3)[Man(a1-6)]Man(b1-4)GlcNAc(b1-4)GlcNAc
# Outline: as §1
# [17] = target: Neu5Ac(a2-6)Gal(b1-4)GlcNAc(b1-2)Man(a1-3)[Neu5Ac(a2-3)Gal(b1-4)GlcNAc(b1-2)Man(a1-6)]Man(b1-4)GlcNAc(b1-4)GlcNAc
# Outline: as §1
# [18] = target: Neu5Ac(a2-6)Gal(b1-4)GlcNAc(b1-2)Man(a1-3)[Neu5Ac(a2-6)Gal(b1-4)GlcNAc(b1-2)Man(a1-6)]Man(b1-4)GlcNAc(b1-4)GlcNAc
# Outline: as §1
# [19] = target: Neu5Ac(a2-6)Gal(b1-4)GlcNAc(b1-2)Man(a1-3)[Neu5Ac(a2-6)Gal(b1-4)GlcNAc(b1-2)Man(a1-6)]Man(b1-4)GlcNAc(b1-4)[Fuc(a1-6)]GlcNAc
# Outline: as §1
# [20] = target: Neu5Ac(a2-6)Gal(b1-4)GlcNAc(b1-2)Man(a1-6)Man(b1-4)GlcNAc(b1-4)GlcNAc
# Outline: as §1
# [21] = target: Neu5Ac(a2-6)Gal(b1-4)GlcNAc(b1-2)Man(a1-6)[Gal(b1-4)GlcNAc(b1-2)Man(a1-3)]Man(b1-4)GlcNAc(b1-4)GlcNAc
# Outline: as §1
# [22] = target: Neu5Ac(a2-6)Gal(b1-4)GlcNAc(b1-2)Man(a1-6)[GlcNAc(b1-2)Man(a1-3)]Man(b1-4)GlcNAc(b1-4)GlcNAc
# Outline: as §1
# [23] = target: Neu5Ac(a2-6)Gal(b1-4)GlcNAc(b1-2)Man(a1-6)[Man(a1-3)]Man(b1-4)GlcNAc(b1-4)GlcNAc
# Outline: as §1
# [24] = target: Neu5Ac(a2-6)Gal(b1-4)GlcNAc(b1-2)[Neu5Ac(a2-6)Gal(b1-4)GlcNAc(b1-4)]Man(a1-3)[GlcNAc(b1-4)][Neu5Ac(a2-6)Gal(b1-4)GlcNAc(b1-2)[Neu5Ac(a2-6)Gal(b1-4)GlcNAc(b1-6)]Man(a1-6)]Man(b1-4)GlcNAc(b1-4)GlcNAc
# Outline: as §1
# [25] = target: Neu5Ac(a2-6)Gal(b1-4)GlcNAc(b1-2)[Neu5Ac(a2-6)Gal(b1-4)GlcNAc(b1-4)]Man(a1-3)[GlcNAc(b1-4)][Neu5Ac(a2-6)Gal(b1-4)GlcNAc(b1-4)Man(a1-6)]Man(b1-4)GlcNAc(b1-4)GlcNAc
# Outline: as §1
# [26] = target: Neu5Ac(a2-6)Gal(b1-4)GlcNAc(b1-2)[Neu5Ac(a2-6)Gal(b1-4)GlcNAc(b1-6)]Man(a1-6)[Neu5Ac(a2-6)Gal(b1-4)GlcNAc(b1-2)Man(a1-3)][GlcNAc(b1-4)]Man(b1-4)GlcNAc(b1-4)GlcNAc
# Outline: as §1
# [27] = target: Neu5Ac(a2-6)Gal(b1-4)GlcNAc(b1-3)Gal(b1-3)GlcNAc
# Outline: as §1
# [28] = target: Neu5Ac(a2-6)Gal(b1-4)GlcNAc(b1-3)Gal(b1-4)GlcNAc
# Outline: as §1
# [29] = target: Neu5Ac(a2-6)Gal(b1-4)GlcNAc(b1-3)Gal(b1-4)GlcNAc(b1-2)Man(a1-3)[Neu5Ac(a2-6)Gal(b1-4)GlcNAc(b1-3)Gal(b1-4)GlcNAc(b1-2)Man(a1-6)]GalNAc
# Outline: as §1
# [30] = target: Neu5Ac(a2-6)Gal(b1-4)GlcNAc(b1-3)Gal(b1-4)GlcNAc(b1-3)Gal(b1-4)GlcNAc
# Outline: as §1
# [31] = target: Neu5Ac(a2-6)Gal(b1-4)GlcNAc(b1-3)Gal(b1-4)GlcNAc(b1-3)Gal(b1-4)GlcNAc(b1-2)Man(a1-3)[Neu5Ac(a2-6)Gal(b1-4)GlcNAc(b1-3)Gal(b1-4)GlcNAc(b1-3)Gal(b1-4)GlcNAc(b1-2)Man(a1-6)]GalNAc
# Outline: as §1
# [32] = target: Neu5Ac(a2-6)Gal(b1-4)GlcNAc(b1-3)Gal(b1-4)GlcNAc(b1-3)GalNAc
# Outline: as §1
# [33] = target: Neu5Ac(a2-6)Gal(b1-4)GlcNAc(b1-3)Gal(b1-4)GlcNAc(b1-3)[Neu5Ac(a2-6)Gal(b1-4)GlcNAc(b1-3)Gal(b1-4)GlcNAc(b1-6)]GalNAc
# Outline: as §1
# [34] = target: Neu5Ac(a2-6)Gal(b1-4)GlcNAc(b1-3)Gal(b1-4)GlcNAc(b1-6)[Gal(b1-3)]GalNAc
# Outline: as §1
# [35] = target: Neu5Ac(a2-6)Gal(b1-4)GlcNAc(b1-3)Gal(b1-4)[Fuc(a1-3)]GlcNAc(b1-3)Gal(b1-4)[Fuc(a1-3)]GlcNAc
# Outline: as §1
# [36] = target: Neu5Ac(a2-6)Gal(b1-4)GlcNAc(b1-3)GalNAc
# Outline: as §1
# [37] = target: Neu5Ac(a2-6)Gal(b1-4)GlcNAc(b1-3)[Neu5Ac(a2-6)Gal(b1-4)GlcNAc(b1-6)]GalNAc
# Outline: as §1
# [38] = target: Neu5Ac(a2-6)Gal(b1-4)GlcNAc(b1-6)GalNAc
# Outline: as §1
# [39] = target: Neu5Ac(a2-6)Gal(b1-4)GlcNAc(b1-6)[Gal(b1-3)GlcNAc(b1-3)]Gal(b1-4)Glc
# Outline: as §1
# [40] = target: Neu5Ac(a2-6)Gal(b1-4)GlcNAc(b1-6)[Gal(b1-3)]GalNAc
# Outline: as §1
# [41] = target: Neu5Ac(a2-6)Gal(b1-4)GlcNAc6S
# Outline: as §1
# [42] = target: Neu5Ac(a2-6)GalNAc
# Outline: as §1
# [43] = target: Neu5Ac(a2-6)GalNAc(b1-4)GlcNAc
# Outline: as §1
# [44] = target: Neu5Ac(a2-6)GalNAc(b1-4)GlcNAc6S
# Outline: as §1
# [45] = target: Neu5Ac(a2-6)GlcNAc(b1-4)GlcNAc
# Outline: as §1
binder,measurement,setting,value
B1,glycan array binding signal (z-score),[1],-0.257
same,glycan array binding signal (z-score),[2],-0.492
same,glycan array binding signal (z-score),[3],-0.272
same,glycan array binding signal (z-score),[4],-0.526
same,glycan array binding signal (z-score),[5],-0.212
same,glycan array binding signal (z-score),[6],0.074
same,glycan array binding signal (z-score),[7],0.344
same,glycan array binding signal (z-score),[8],-0.529
same,glycan array binding signal (z-score),[9],-0.401
same,glycan array binding signal (z-score),[10],-0.211
same,glycan array binding signal (z-score),[11],-0.531
same,glycan array binding signal (z-score),[12],-0.045
same,glycan array binding signal (z-score),[13],-0.107
same,glycan array binding signal (z-score),[14],-0.619
same,glycan array binding signal (z-score),[15],-0.388
same,glycan array binding signal (z-score),[16],0.82
same,glycan array binding signal (z-score),[17],0.214
same,glycan array binding signal (z-score),[18],0.03
same,glycan array binding signal (z-score),[19],-0.033
same,glycan array binding signal (z-score),[20],-0.562
same,glycan array binding signal (z-score),[21],-0.608
same,glycan array binding signal (z-score),[22],0.223
same,glycan array binding signal (z-score),[23],0.03
same,glycan array binding signal (z-score),[24],0.872
same,glycan array binding signal (z-score),[25],0.321
same,glycan array binding signal (z-score),[26],-0.248
same,glycan array binding signal (z-score),[27],-0.189
same,glycan array binding signal (z-score),[28],-0.049
same,glycan array binding signal (z-score),[29],-0.327
same,glycan array binding signal (z-score),[30],-0.309
same,glycan array binding signal (z-score),[31],-0.028
same,glycan array binding signal (z-score),[32],0.137
same,glycan array binding signal (z-score),[33],-0.453
same,glycan array binding signal (z-score),[34],-0.138
same,glycan array binding signal (z-score),[35],-0.37
same,glycan array binding signal (z-score),[36],-0.16
same,glycan array binding signal (z-score),[37],-0.133
same,glycan array binding signal (z-score),[38],-0.026
same,glycan array binding signal (z-score),[39],-0.101
same,glycan array binding signal (z-score),[40],0.503
same,glycan array binding signal (z-score),[41],0.383
same,glycan array binding signal (z-score),[42],-0.189
same,glycan array binding signal (z-score),[43],-0.44
same,glycan array binding signal (z-score),[44],-0.087
same,glycan array binding signal (z-score),[45],-0.185
